Results from PMC5775257.
No constants are given. Whether binding was seen depends on the method and setting. Binding seen in cells or lysates may run through a third protein. Some binding calls cover weakened binding; strength is not graded here.

T1: Roquin-1 (transfected, HEK293T) (UniProt Q4VGL6)
T1 sequence: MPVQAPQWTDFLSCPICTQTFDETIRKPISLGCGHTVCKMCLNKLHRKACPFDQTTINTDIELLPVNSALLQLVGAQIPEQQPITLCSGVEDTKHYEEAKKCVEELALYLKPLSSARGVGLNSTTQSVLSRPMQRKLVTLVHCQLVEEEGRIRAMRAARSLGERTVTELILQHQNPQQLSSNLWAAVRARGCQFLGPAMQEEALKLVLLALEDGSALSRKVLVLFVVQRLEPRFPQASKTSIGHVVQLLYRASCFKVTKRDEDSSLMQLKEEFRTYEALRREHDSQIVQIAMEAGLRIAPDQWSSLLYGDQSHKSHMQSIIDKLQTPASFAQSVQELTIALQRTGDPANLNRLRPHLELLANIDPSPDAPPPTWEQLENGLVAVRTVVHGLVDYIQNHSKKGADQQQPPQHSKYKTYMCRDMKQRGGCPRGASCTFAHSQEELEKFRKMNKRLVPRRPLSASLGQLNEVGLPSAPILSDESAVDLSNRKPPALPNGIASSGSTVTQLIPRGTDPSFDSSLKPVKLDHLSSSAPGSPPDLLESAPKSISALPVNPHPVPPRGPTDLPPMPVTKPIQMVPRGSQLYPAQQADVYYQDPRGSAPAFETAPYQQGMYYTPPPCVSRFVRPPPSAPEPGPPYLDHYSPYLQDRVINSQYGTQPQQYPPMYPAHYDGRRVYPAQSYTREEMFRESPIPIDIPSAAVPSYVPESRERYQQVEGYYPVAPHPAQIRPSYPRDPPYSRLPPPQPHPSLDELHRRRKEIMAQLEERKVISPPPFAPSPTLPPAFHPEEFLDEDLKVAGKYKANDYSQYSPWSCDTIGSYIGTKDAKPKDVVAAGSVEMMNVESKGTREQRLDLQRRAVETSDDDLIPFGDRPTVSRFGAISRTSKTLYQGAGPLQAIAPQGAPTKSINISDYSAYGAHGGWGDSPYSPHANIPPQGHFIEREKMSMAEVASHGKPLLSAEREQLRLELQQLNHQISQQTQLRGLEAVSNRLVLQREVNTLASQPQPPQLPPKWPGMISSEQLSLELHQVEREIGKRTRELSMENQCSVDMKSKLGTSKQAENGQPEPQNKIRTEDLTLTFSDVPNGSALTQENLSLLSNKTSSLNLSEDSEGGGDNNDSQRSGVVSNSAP

T2: endogenous Nufip2 (MEF cells) (mouse (endogenous in MEF)) (UniProt Q5F2E7)
T2 sequence: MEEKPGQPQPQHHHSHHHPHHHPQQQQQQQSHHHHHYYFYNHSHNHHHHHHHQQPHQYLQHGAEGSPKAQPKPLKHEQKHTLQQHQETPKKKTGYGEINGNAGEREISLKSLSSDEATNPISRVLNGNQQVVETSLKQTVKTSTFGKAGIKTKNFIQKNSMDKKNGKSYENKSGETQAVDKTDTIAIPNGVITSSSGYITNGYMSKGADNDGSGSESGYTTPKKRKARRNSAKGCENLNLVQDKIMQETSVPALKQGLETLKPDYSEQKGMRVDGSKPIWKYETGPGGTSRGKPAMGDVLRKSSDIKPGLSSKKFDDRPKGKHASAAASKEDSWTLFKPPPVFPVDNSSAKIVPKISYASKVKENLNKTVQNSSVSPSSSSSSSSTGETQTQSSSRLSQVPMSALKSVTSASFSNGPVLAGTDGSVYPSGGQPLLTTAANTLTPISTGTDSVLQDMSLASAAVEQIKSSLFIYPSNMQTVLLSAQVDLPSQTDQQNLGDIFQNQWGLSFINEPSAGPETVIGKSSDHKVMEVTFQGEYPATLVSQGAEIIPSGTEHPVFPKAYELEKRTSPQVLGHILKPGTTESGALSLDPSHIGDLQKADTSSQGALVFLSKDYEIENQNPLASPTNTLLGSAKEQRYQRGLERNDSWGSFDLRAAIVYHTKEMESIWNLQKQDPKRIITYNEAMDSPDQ


How the values were obtained:
[1] = biological target: T1, Roquin-1 (transfected, HEK293T); assay: co-IP; polyclonal anti-Roquin-1 on Protein A Dynabeads; lysates of HEK293T cells transfected with Roquin-1 and NUFIP2 fragments; immunoblot
[2] = biological target: T2, endogenous Nufip2 (MEF cells) (mouse (endogenous in MEF)); assay: co-IP; anti-Nufip2 (23G8) on Protein G Dynabeads; endogenous proteins from lysates of individual Roquin-1 or Roquin-2 knockout cells; immunoblot

binding [1]	binding [2]	Binder
no binding	–	NUFIP2 (aa 411–695) (domain or fragment, UniProt Q7Z417 411-695) SANFSNGPVLAGTDGNVYPPGGQPLLTTAANTLTPISSGTDSVLQDMSLTSAAVEQIKTSLFIYPSNMQTMLLSTAQVDLPSQTDQQNLGDIFQNQWGLSFINEPSAGPETVTGKSSEHKVMEVTFQGEYPATLVSQGAEIIPSGTEHPVFPKAYELEKRTSPQVLGSILKSGTTSESGALSLEPSHIGDLQKADTSSQGALVFLSKDYEIESQNPLASPTNTLLGSAKEQRYQRGLERNDSWGSFDLRAAIVYHTKEMESIWNLQKQDPKRIITYNEAMDSPDQ
–	binds	endogenous Roquin-1 (MEF cells) (protein, UniProt Q4VGL6 1-1130) MPVQAPQWTDFLSCPICTQTFDETIRKPISLGCGHTVCKMCLNKLHRKACPFDQTTINTDIELLPVNSALLQLVGAQIPEQQPITLCSGVEDTKHYEEAKKCVEELALYLKPLSSARGVGLNSTTQSVLSRPMQRKLVTLVHCQLVEEEGRIRAMRAARSLGERTVTELILQHQNPQQLSSNLWAAVRARGCQFLGPAMQEEALKLVLLALEDGSALSRKVLVLFVVQRLEPRFPQASKTSIGHVVQLLYRASCFKVTKRDEDSSLMQLKEEFRTYEALRREHDSQIVQIAMEAGLRIAPDQWSSLLYGDQSHKSHMQSIIDKLQTPASFAQSVQELTIALQRTGDPANLNRLRPHLELLANIDPSPDAPPPTWEQLENGLVAVRTVVHGLVDYIQNHSKKGADQQQPPQHSKYKTYMCRDMKQRGGCPRGASCTFAHSQEELEKFRKMNKRLVPRRPLSASLGQLNEVGLPSAPILSDESAVDLSNRKPPALPNGIASSGSTVTQLIPRGTDPSFDSSLKPVKLDHLSSSAPGSPPDLLESAPKSISALPVNPHPVPPRGPTDLPPMPVTKPIQMVPRGSQLYPAQQADVYYQDPRGSAPAFETAPYQQGMYYTPPPCVSRFVRPPPSAPEPGPPYLDHYSPYLQDRVINSQYGTQPQQYPPMYPAHYDGRRVYPAQSYTREEMFRESPIPIDIPSAAVPSYVPESRERYQQVEGYYPVAPHPAQIRPSYPRDPPYSRLPPPQPHPSLDELHRRRKEIMAQLEERKVISPPPFAPSPTLPPAFHPEEFLDEDLKVAGKYKANDYSQYSPWSCDTIGSYIGTKDAKPKDVVAAGSVEMMNVESKGTREQRLDLQRRAVETSDDDLIPFGDRPTVSRFGAISRTSKTLYQGAGPLQAIAPQGAPTKSINISDYSAYGAHGGWGDSPYSPHANIPPQGHFIEREKMSMAEVASHGKPLLSAEREQLRLELQQLNHQISQQTQLRGLEAVSNRLVLQREVNTLASQPQPPQLPPKWPGMISSEQLSLELHQVEREIGKRTRELSMENQCSVDMKSKLGTSKQAENGQPEPQNKIRTEDLTLTFSDVPNGSALTQENLSLLSNKTSSLNLSEDSEGGGDNNDSQRSGVVSNSAP
–	binds	endogenous Roquin-2 (MEF cells) (protein, UniProt P0C090 1-1187) MPVQAAQWTEFLSCPICYNEFDENVHKPISLGCSHTVCKTCLNKLHRKACPFDQTAINTDIDVLPVNFALLQLVGAQVPDHQSIKLSNLGENKHYEVAKKCVEDLALYLKPLSGGKGVASLNQSALSRPMQRKLVTLVNCQLVEEEGRVRAMRAARSLGERTVTELILQHQNPQQLSANLWAAVRARGCQFLGPAMQEEALKLVLLALEDGSALSRKVLVLFVVQRLEPRFPQASKTSIGHVVQLLYRASCFKVTKRDEDSSLMQLKEEFRSYEALRREHDAQIVHIAMEAGLRISPEQWSSLLYGDLAHKSHMQSIIDKLQSPESFAKSVQELTIVLQRTGDPANLNRLRPHLELLANIDPNPDAVSPTWEQLENAMVAVKTVVHGLVDFIQNYSRKGHETPQPQPNSKYKTSMCRDLRQQGGCPRGTNCTFAHSQEELEKYRLRNKKMSATVRTFPLLNKVGVNSTVTTTAGNVISVIGSTETTGKIVASTNGISNTESSVSQLIPRGTDSAVRTLETVKKVGKVGTNAQNAGPSAESVSENKIGSPPKTPVSNAAATSAGPSNFGTELNSLPPKSSPFLTRVPVYPQHSESIQYFQDPRTQIPFEVPQYPQTGYYPPPPTVPAGVTPCVPRFVRSSNVPESSLPPASMPYADHYSTFSPRDRMNSSPYQPPPPQQYGPVPPVPSGMYAPVYDSRRIWRPAMYQRDDIIRSNSLPPMDVMHSSVYQTSLRERYNSLDGYYSVACQPPNDPRTTVPLPREPCGHLKTSCEEQLRRKPDQWTQYHTQKTPVSSTLPVATQSPTPPSPLFSVDFRSDFSESVSGAKFEEDHLSHYSPWSCGTIGSCINAIDSEPKDVIANSNAVLMDLDSGDVKRRVHLFEAQRRTKEEDPIIPFSDGPIISKWGAISRSSRTGYHTTDPVQATASQGSATKPISVSDYVPYVNAVDSRWSSYGNDATSSAHYIERDRFIVTDLSGHRKHSSTGDLLSIELQQAKSNSLLLQREANALAMQQKWNSLDEGRHLTLNLLSKEIELRNGENDYTEDTVDTKPDRDIELELSALDTDEPDGQSEQIEEILDIQLGISSQNDQLLNGTAVENGHPAQQHQKDPGKPKRQSLGEDHVILEEQKPILPVTSCFSQPRPMSISSASCLPITTSVSVGNLILKTHVMSEDKNDFLKPIANGKMVNS
no binding	–	NUFIP2 (aa 1–255) (domain or fragment, UniProt Q7Z417 1-255) MEEKPGQPQPQHHHSHHHPHHHPQQQQQQPHHHHHYYFYNHSHNHHHHHHHQQPHQYLQHGAEGSPKAQPKPLKHEQKHTLQQHQETPKKKTGYGELNGNAGEREISLKNLSSDEATNPISRVLNGNQQVVDTSLKQTVKANTFGKAGIKTKNFIQKNSMDKKNGKSYENKSGENQSVDKSDTIPIPNGVVTNNSGYITNGYMGKGADNDGSGSESGYTTPKKRKARRNSAKGCENLNIVQDKIMQQETSVPTLK
